Kd, koff and kon data for three molecules are collected here from patent EP4650366A1 (Beijing Tuo Jie Biopharmaceutical Co. Ltd., dated 2025).

By Kd is commonly meant the equilibrium constant for the complex coming apart. Higher therefore signals lower affinity. By koff is commonly meant the rate constant with which the complex falls apart. Read a low koff as a long-lived complex. As a reminder, the kon is the rate constant with which the complex forms. A lower kon goes with slow association.

In one assay the target is T1, Mouse GARP-TGFβ1 complex (mouse, UniProt G3XA59 18-628; P04202 30-390).
T1 construct: Soluble recombinant complex, co-expressed in ExpiCHO cells and purified; also called Murine GARP-TGFβ1 complex
Put plainly: SPR (Biacore T200), antibody on Protein A chip, antigen in flow. (SPR reads the build-up and loss of mass on a sensor chip optically.)

The target of the next assay is T2, Human GARP-TGFβ1 complex (human, UniProt Q14392 20-627; P01137 30-390).
T2 construct: Soluble recombinant complex, co-expressed in ExpiCHO cells and purified; also called human GARP/TGFβ1 protein
The assay is described as above.

Sequence of Human GARP-TGFβ1 complex (Q14392 other isoform, or with tags, fused parts or gaps limits assumed, chain 1 of 2): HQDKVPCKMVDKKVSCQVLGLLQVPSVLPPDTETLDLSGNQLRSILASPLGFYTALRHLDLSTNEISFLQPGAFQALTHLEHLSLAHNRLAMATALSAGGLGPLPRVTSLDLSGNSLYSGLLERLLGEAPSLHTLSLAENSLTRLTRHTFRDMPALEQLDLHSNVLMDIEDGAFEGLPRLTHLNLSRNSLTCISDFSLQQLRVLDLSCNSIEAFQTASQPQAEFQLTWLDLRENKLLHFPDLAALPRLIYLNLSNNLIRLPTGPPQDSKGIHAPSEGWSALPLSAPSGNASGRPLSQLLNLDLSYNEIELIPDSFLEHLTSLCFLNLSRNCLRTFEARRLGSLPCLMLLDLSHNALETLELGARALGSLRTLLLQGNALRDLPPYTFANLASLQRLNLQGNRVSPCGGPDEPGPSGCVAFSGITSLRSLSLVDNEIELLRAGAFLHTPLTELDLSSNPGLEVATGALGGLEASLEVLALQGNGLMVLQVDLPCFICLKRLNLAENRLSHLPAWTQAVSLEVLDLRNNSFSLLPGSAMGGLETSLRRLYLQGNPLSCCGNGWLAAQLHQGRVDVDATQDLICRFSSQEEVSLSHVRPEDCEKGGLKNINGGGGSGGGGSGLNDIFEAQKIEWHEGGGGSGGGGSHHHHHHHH
Sequence of Human GARP-TGFβ1 complex (P01137 30-390 limits assumed, chain 2 of 2, further chain): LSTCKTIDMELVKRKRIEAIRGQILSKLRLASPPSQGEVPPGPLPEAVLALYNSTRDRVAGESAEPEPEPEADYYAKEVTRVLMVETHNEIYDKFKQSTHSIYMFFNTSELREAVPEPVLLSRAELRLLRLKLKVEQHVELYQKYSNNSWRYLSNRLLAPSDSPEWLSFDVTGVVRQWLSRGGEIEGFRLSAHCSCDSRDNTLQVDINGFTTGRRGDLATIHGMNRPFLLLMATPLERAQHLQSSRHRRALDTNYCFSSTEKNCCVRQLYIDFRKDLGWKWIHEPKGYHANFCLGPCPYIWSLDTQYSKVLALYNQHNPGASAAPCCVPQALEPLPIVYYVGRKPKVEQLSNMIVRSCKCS
Sequence of Mouse GARP-TGFβ1 complex (G3XA59 other isoform, or with tags, fused parts or gaps limits assumed, chain 1 of 2): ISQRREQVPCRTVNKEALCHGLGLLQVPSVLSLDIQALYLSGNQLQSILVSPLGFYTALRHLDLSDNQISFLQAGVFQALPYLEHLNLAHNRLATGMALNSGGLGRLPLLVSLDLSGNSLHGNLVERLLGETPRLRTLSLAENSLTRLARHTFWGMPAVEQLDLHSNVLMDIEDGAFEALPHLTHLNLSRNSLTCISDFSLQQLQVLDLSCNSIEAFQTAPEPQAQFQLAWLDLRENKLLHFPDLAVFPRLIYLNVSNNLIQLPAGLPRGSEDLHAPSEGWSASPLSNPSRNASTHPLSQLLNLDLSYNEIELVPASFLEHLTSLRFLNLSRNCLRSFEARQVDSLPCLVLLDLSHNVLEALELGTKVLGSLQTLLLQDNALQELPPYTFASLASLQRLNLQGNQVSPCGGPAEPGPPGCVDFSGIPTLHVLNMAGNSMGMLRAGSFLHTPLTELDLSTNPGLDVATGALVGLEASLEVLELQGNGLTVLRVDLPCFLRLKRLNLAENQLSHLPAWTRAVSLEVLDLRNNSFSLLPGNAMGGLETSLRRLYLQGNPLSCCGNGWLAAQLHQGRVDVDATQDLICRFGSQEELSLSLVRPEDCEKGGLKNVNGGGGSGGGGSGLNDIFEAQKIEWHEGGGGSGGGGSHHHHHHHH
Sequence of Mouse GARP-TGFβ1 complex (P04202 30-390 limits assumed, chain 2 of 2, further chain): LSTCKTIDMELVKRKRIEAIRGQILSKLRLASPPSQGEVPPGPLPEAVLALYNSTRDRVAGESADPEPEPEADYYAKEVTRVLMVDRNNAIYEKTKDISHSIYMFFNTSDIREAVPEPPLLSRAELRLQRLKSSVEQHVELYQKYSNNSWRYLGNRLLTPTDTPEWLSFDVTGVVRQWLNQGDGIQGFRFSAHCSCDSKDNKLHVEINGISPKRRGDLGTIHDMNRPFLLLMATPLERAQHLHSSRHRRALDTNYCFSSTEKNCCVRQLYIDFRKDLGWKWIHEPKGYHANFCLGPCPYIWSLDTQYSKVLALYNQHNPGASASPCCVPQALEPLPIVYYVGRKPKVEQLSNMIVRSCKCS

B1: C19-7 (Fc fusion)
chain: EVQLLESGGGLVQPGGSLRLSCTASGFTYCEYDMSWYRQAPGKEREFVSRIASDGRTSYVDSVKGRFTISQDNARNTGYLEMNSLRAEDTAVYYCKTEAVKYSGNWCVAAPGFAYWGQGTLVTVSS[human IgG4 Fc with S228P (EU numbers) cut from this listing]
notes: Humanized VHH-hIgG4 Fc; also called C19-hu7 fused with hIgG4 Fc
In the assay with Mouse GARP-TGFβ1 complex, B1 gave a Kd of 24.6 nM, an off-rate (koff) of 0.00061 s⁻¹ and a kon of 24800 M⁻¹ s⁻¹. In the assay with Human GARP-TGFβ1 complex, this molecule displayed a Kd of 2.46 nM, an off-rate (koff) of 0.000101 s⁻¹ and a kon of 41200 M⁻¹ s⁻¹.

B2: C19 (Fc fusion)
chain: QVQLVESGGGSVQAGGSLRLSCTASGFTYCEYDMSWYRQAPGKEREFVSRIASDGRTSYVDSVKGRFTISQDNARNTGYLEMNSLKPEDTAMYYCKTEAVKYSGNWCVAAPGFAYWGQGTQVTVSS[human IgG4 Fc with S228P (EU numbers) cut from this listing]
notes: Camelid VHH fused with human IgG4 Fc (S228P); It is built here from the VHH and the Fc; no linker is mentioned; also called C19-VHH fused with hIgG4-Fc (S228P)
In the assay with Mouse GARP-TGFβ1 complex, B2 showed a Kd of 10.1 nM, a koff of 0.000507 s⁻¹ and a kon of 50000 M⁻¹ s⁻¹. In the assay with Human GARP-TGFβ1 complex, this molecule yielded a Kd of 2.12 nM, a koff of 0.000157 s⁻¹ and an on-rate constant (kon) of 73800 M⁻¹ s⁻¹.

B3: C19-3 (Fc fusion)
chain: EVQLLESGGGLVQPGGSLRLSCTASGFTYCEYDMSWYRQAPGKEREFVSRIASDGRTSYVDSVKGRFTISQDNARNTGYLQMNSLRAEDTAVYYCKTEAVKYSGNWCVAAPGFAYWGQGTLVTVSS[human IgG4 Fc with S228P (EU numbers) cut from this listing]
notes: Humanized VHH-hIgG4 Fc; also called C19-hu3 fused with hIgG4 Fc
In the assay with Mouse GARP-TGFβ1 complex, B3 yielded a Kd of 44.6 nM, a koff of 0.000625 s⁻¹ and a kon of 14000 M⁻¹ s⁻¹. In the assay with Human GARP-TGFβ1 complex, this molecule displayed a Kd of 4.69 nM, a koff of 0.000145 s⁻¹ and a kon of 30800 M⁻¹ s⁻¹.
